What all share (assay): universal protein binding microarray (PBM)
Holding throughout (details): transcription factors of Arabidopsis thaliana; high values mean tight binding; most listed sequences are background and not binding sites; double strand, one strand shown

The target in one assay is T1, GST-ANAC092(1-176) (UniProt Q9FKA0).
T1 sequence: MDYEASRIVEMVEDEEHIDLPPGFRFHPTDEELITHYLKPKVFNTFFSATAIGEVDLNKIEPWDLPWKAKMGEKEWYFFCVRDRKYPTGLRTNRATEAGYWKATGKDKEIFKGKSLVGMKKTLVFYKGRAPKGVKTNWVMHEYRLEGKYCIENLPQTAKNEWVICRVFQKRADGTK

The next assay concerns the target GST-NTL6(1-168) (UniProt Q9SCK6).
The next assay concerns the target T2, GST-ANAC019 NAC domain (UniProt Q9C932).
T2 sequence: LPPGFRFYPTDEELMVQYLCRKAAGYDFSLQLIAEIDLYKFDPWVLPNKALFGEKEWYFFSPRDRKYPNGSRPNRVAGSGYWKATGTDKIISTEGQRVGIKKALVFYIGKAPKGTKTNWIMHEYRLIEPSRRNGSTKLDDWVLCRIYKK

For another assay, the target named is T3, GST-ANAC055(1-171) (UniProt Q9LDY8).
T3 sequence: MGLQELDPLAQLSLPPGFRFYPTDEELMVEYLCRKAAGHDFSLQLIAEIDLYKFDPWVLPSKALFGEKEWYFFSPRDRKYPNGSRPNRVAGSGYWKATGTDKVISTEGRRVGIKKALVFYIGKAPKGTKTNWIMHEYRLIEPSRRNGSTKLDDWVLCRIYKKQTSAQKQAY

A further assay has as its target T4, GST-NAP(1-166) (UniProt O49255).
T4 sequence: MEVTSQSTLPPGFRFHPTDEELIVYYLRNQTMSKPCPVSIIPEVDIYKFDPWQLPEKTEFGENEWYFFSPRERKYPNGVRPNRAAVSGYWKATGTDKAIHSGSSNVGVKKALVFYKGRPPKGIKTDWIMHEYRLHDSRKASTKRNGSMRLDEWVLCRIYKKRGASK

The target of a further assay is T5, GST-NST2(1-184) (UniProt Q9M274).
T5 sequence: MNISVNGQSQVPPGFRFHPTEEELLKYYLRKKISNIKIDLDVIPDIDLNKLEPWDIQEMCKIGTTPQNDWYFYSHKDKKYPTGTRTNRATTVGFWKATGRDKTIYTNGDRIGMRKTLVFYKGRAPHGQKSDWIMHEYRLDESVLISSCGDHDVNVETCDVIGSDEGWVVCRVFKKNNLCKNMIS

Another assay deals with T6, GST-NTL8 NAC domain (UniProt Q9XIN7).
T6 sequence: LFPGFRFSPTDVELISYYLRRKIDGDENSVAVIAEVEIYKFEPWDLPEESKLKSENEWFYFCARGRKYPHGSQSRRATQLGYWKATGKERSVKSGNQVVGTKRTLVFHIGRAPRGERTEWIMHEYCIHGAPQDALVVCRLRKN

For another assay, the target named is T7, GST-VND3 NAC domain (UniProt Q9FH59).
T7 sequence: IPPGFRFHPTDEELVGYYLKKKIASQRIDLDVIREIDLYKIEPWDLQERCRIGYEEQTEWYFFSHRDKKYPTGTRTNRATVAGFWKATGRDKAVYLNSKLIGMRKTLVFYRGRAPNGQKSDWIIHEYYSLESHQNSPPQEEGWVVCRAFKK

A further assay deals with T8, GST-VND7 NAC domain (UniProt Q9C8W9).
T8 sequence: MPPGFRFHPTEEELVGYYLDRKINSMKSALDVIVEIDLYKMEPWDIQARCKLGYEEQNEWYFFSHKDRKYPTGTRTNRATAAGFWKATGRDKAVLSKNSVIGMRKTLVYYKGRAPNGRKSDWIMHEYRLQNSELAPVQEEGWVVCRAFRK

For assay [1], the target named is T9, GST-VOZ2 (Arabidopsis thaliana) (UniProt Q9SLB9).
T9 sequence: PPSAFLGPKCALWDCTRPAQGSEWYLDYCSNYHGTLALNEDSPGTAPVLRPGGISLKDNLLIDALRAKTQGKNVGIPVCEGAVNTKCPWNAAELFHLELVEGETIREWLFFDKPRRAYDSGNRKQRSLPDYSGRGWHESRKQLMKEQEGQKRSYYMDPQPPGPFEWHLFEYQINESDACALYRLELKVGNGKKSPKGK

The target of a further assay is GST-WRKY1(266-371) (UniProt Q9SI37).
The next assay has as its target T10, GST-ATAF1 NAC domain (UniProt Q39013).
T10 sequence: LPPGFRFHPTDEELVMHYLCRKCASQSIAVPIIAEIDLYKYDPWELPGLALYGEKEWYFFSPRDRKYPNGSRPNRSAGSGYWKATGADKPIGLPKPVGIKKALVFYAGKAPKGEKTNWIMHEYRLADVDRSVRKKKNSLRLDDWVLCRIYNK

In assay [2] the target is T11, GST-ANAC092(1-285) full length (UniProt Q9FKA0).
T11 sequence: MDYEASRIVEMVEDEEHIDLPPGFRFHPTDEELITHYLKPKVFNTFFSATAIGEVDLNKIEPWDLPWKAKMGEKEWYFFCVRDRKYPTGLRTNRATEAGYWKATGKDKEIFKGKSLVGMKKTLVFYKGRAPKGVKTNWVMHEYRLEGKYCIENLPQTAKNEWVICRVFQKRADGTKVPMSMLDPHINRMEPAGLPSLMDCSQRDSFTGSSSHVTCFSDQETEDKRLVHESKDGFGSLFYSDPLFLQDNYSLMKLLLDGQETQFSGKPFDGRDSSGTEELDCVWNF

The list shows a part of the results, in another mix than the full data. For some of these results: At the low end of the ranking the order means little. This is one part of the list. For some of these results: The exact form of the protein is not confirmed.

Turning to TAAAGTCA, the binding signal was -0.0308 E-score with GST-ANAC092(1-176); 0.0322 E-score in the assay with GST-NTL6(1-168); 0.0117 E-score with GST-ANAC019 NAC domain; 4.5e-05 E-score with GST-ANAC055(1-171); -0.0664 E-score with GST-NAP(1-166); 0.0158 E-score with GST-NST2(1-184). Further, the binding signal is -0.102 E-score in the assay with GST-NTL8 NAC domain, -0.062 E-score with GST-VND3 NAC domain, -0.141 E-score with GST-VND7 NAC domain and -0.0671 E-score in [1].

For the sequence GGAGGTAA, the binding signal in the assay with GST-NTL6(1-168) is 0.202 E-score; with GST-NTL8 NAC domain it was 0.435 E-score; with GST-VND3 NAC domain it was 0.139 E-score; with GST-VND7 NAC domain, 0.0814 E-score; in [1], 0.0718 E-score; with GST-WRKY1(266-371), -0.103 E-score.

In the case of TTAAGGAA, the binding signal with GST-ANAC092(1-176) was 0.11 E-score; in the assay with GST-ANAC019 NAC domain, 0.0389 E-score; with GST-NAP(1-166) it was -0.13 E-score; in the assay with GST-NST2(1-184) it was 0.139 E-score; with GST-VND3 NAC domain, 0.24 E-score; with GST-VND7 NAC domain it was -0.0483 E-score. In [1], the binding signal was -0.0265 E-score.

With CACGCGAA, the binding signal with GST-ANAC019 NAC domain was -0.000305 E-score; with GST-ATAF1 NAC domain, -0.0348 E-score; with GST-NAP(1-166), -0.0358 E-score; with GST-VND3 NAC domain, -0.0654 E-score; with GST-VND7 NAC domain, 0.0268 E-score; in assay [1] it was 0.122 E-score. In the assay with GST-WRKY1(266-371), this sequence gave a binding signal of -0.0622 E-score.

With CTTACGCA, the binding signal is 0.0871 E-score with GST-NTL6(1-168); 0.187 E-score with GST-ATAF1 NAC domain; 0.389 E-score in assay [2]; 0.278 E-score in the assay with GST-NST2(1-184); 0.111 E-score with GST-NTL8 NAC domain; 0.255 E-score in the assay with GST-VND3 NAC domain. Also, the binding signal in the assay with GST-VND7 NAC domain is 0.295 E-score; in assay [1], 0.138 E-score; in the assay with GST-WRKY1(266-371) it was -0.0122 E-score.

As for CGTAGACC, the binding signal with GST-ANAC092(1-176) was -0.0984 E-score; with GST-NTL6(1-168), -0.115 E-score; in the assay with GST-ANAC019 NAC domain, -0.111 E-score; in the assay with GST-ANAC055(1-171), 0.011 E-score; in the assay with GST-ATAF1 NAC domain, -0.00481 E-score; in assay [2], 0.000565 E-score. Further, the binding signal is -0.0515 E-score with GST-NAP(1-166); -0.0507 E-score with GST-NST2(1-184); -0.145 E-score with GST-NTL8 NAC domain; 0.0411 E-score in the assay with GST-VND3 NAC domain; -0.128 E-score with GST-VND7 NAC domain; -0.182 E-score in assay [1].

In the case of CTGTTGAC, the binding signal was 0.105 E-score in the assay with GST-ANAC092(1-176); 0.0402 E-score with GST-NTL6(1-168); -0.0491 E-score with GST-ANAC055(1-171); -0.0408 E-score with GST-ATAF1 NAC domain; 0.0104 E-score with GST-NAP(1-166); 0.0185 E-score with GST-NST2(1-184). The binding signal with GST-NTL8 NAC domain is -0.0969 E-score; with GST-VND3 NAC domain it was 0.0152 E-score; with GST-VND7 NAC domain, -0.051 E-score; in [1], 0.0598 E-score.

As for CTTAAGGA, the binding signal with GST-ANAC092(1-176) was 0.0455 E-score; in the assay with GST-NTL6(1-168), 0.401 E-score; in the assay with GST-ANAC019 NAC domain, -0.0726 E-score; with GST-ANAC055(1-171) it was -0.0364 E-score; with GST-ATAF1 NAC domain it was -0.0455 E-score; in assay [2], -0.00475 E-score. Moreover, the binding signal with GST-NAP(1-166) was -0.206 E-score; in the assay with GST-NST2(1-184), 0.0872 E-score; in the assay with GST-NTL8 NAC domain it was 0.179 E-score; with GST-VND3 NAC domain it was 0.0373 E-score; with GST-VND7 NAC domain, -0.0527 E-score; in assay [1], 0.00821 E-score.

In the case of AAGTCAAT, the binding signal with GST-ANAC092(1-176) is -0.0132 E-score; with GST-ANAC019 NAC domain, -0.0466 E-score; with GST-ANAC055(1-171), -0.0121 E-score; with GST-NAP(1-166) it was -0.115 E-score; in the assay with GST-NST2(1-184), 0.0431 E-score; in the assay with GST-NTL8 NAC domain, -0.0194 E-score. In addition, the binding signal in the assay with GST-VND3 NAC domain came to 0.0407 E-score; in the assay with GST-VND7 NAC domain, 0.0343 E-score; in [1] it was 0.0312 E-score.

With GTTGACTA, the binding signal with GST-ANAC092(1-176) came out at 0.0254 E-score; with GST-ANAC019 NAC domain, 0.079 E-score; in the assay with GST-NAP(1-166), 0.0198 E-score; with GST-NST2(1-184) it was 0.0271 E-score; in the assay with GST-NTL8 NAC domain, 0.0207 E-score; with GST-VND3 NAC domain, 0.158 E-score. The binding signal with GST-VND7 NAC domain is 0.0849 E-score; in assay [1] it was 0.0271 E-score.

As for ACCGTCAA, the binding signal in the assay with GST-ANAC092(1-176) was 0.006 E-score; in the assay with GST-NTL6(1-168) it was -0.0269 E-score; with GST-ANAC055(1-171), 0.0155 E-score; with GST-ATAF1 NAC domain, 0.0205 E-score; in the assay with GST-NST2(1-184), 0.0111 E-score; in the assay with GST-NTL8 NAC domain, 0.039 E-score. Besides, the binding signal with GST-VND3 NAC domain is 0.126 E-score; with GST-VND7 NAC domain it was 0.019 E-score; in assay [1] it was 0.0271 E-score.

Turning to TCAAGTCA, the binding signal in the assay with GST-ANAC092(1-176) is -0.000595 E-score; with GST-NTL6(1-168), -0.000985 E-score; in the assay with GST-ANAC019 NAC domain it was 0.0464 E-score; with GST-ANAC055(1-171) it was 0.0629 E-score; with GST-NAP(1-166) it was 0.00962 E-score; in the assay with GST-NTL8 NAC domain it was -0.0264 E-score. The results for the binding signal (with GST-VND3 NAC domain; with GST-VND7 NAC domain; in [1]) were 0.007 E-score, -0.0449 E-score and 0.0151 E-score, respectively.

Turning to GGTCAAAA, the binding signal with GST-ANAC019 NAC domain was -0.109 E-score; in the assay with GST-ATAF1 NAC domain, 0.0384 E-score; in assay [2], 0.043 E-score; with GST-NAP(1-166), -0.0558 E-score; with GST-NST2(1-184) it was -0.00022 E-score; with GST-VND3 NAC domain, 0.0741 E-score. The binding signal with GST-VND7 NAC domain is -0.0183 E-score; in assay [1], 0.114 E-score; in the assay with GST-WRKY1(266-371) it was 0.478 E-score.

For CACACGCC, the binding signal with GST-NTL6(1-168) was -0.205 E-score; in the assay with GST-NAP(1-166), 0.0229 E-score; in the assay with GST-NTL8 NAC domain, -0.0281 E-score; in the assay with GST-VND3 NAC domain, 0.028 E-score; in the assay with GST-VND7 NAC domain, 0.0208 E-score; in assay [1], 0.105 E-score. Besides, the binding signal with GST-WRKY1(266-371) is -0.213 E-score.

For the origin of these results see paper PMC4081100.
